We go through 20 variants from the RNAGym collection of RNA variant scans (doi:10.7554/elife.90254).

The chains are these.
B1: LINE1-full (parent)
chain: UACGUAGGUGGUUUUCCCCUGAUAGUGCUAAGGGGGCCUGGAAGUUUGGACUGGGCAGAGCUCAACACAGCGUGGCAAAGUGGCUGUGGCUAGACUGCCUCUCUGGAUUCCUCGUCACUCAGCAGGGCAUCUCUGAGAGAAAUGCC

Read counts are not given, so values of variants with three or more changes are uncertain.

This data set covers variants of B1. The experiment in a line: self-cleavage, relative activity (ratio to wild type); higher = more cleavage; in vitro, sequencing; the parent is a self-cleaving ribozyme.
Consider UACGUAGGUGGUUUACCCCUGAUAGUGCUAAGGGGGCCUGGAAGUUUGGACUGGGCUGAGCUCAACACAGCGUGGCAAAGUGGCUGUGGCUAGACUGCCUCUCUGGAUUCCUCGUCGCUCAGCAGGGCAUCUCUGAGAGAAAUGCC, for which the self-cleavage came to 0.

In the case of UACGUAGGUGGUUUACCCCUGAUAGUGCUAAGGGGGCCUGGAGGUUUGGACUGGGCAGAGCUCAACACAGCGUGGCAAAGUGGCUGUGGCUAGACUGCCUCCCUGGAUUCCUCGUCACUCAGCAGGGCAUCUCUGAGAGAAAUGCC, the self-cleavage is 0.39.

Regarding UACGUAGGUGGUUUACCCCUGAUAGUGCUAAGGGGGCCUGGAAGUUUGGACUGGGCAGAGCUCAACUCAGCGUGGCAAAGUGGCUGUGGCUAGACUGCCUCUCUGGAUUCCUCGUCACUCAGCAGGGCAUCUCUGAGGGAAAUGCC, the self-cleavage turned out to be 0.23.

Consider UACGUAGGUGGUUUACCCCUGAUAGUGCUAAGGGGGCCUGGGAGUUUGGACUGGGCAGGGCUCAACACAGCGUGGCAAAGUGGCUGUGGCUAGACUGCCUCUCUGGAUUCCUCGUCACUCAGCAGGGCAUCUCUGAGAGAAAUGCC, for which the self-cleavage is 0.21.

Regarding UACGUAGGUGGUUUACCCCUGAUAGUGCUAAGGGGGCCUGGAAGUUUGGGCUGGGCAGAGCUCAACACAGCGUGGCAAAGUGGCUGUGGCUAGACUGCCUCUCUGGAUUCCCCGUCACUCAGCAGGGCAUCUCUGAGAGAAAUGCC, the self-cleavage is 0.77.

In the case of UACGUAGGUGGUUUACCCCUGAUAGUGCUAAGGGGGCCUGGAAGUUUGGACUGGGCUGCGCUCGACUCAGCGUGGCAAAGUGGCUGUGGCUAGACUGCCUCUCUGGAUUCCUCGUCACUCAGCAGGGCAUCUCUGAGAGAAAUGCC, the self-cleavage was determined as 0.

UACGUAGGUGGUUUACCCCUGAUAGUGCUAAGGGGGCCUGGAAGUUUGGACUGGGCAGAGCUCUACACAGCGUGGCAAAGUGGCUGCGGCUAGACUGCCUCUCUGGAUUCCUCGUCACUCAGCAGGGCAUCUCUGAGAGAAAUGCC: the self-cleavage is 0.11.

As to UACGUAGGUGGUUUACCCCUGAUAGUGCUAUGGGGGCCUGGAAGUUUGGACUGGGCAGAGCUCAACACAGCGUGGCAAAGUGGCUGUGGCUAGACUGCCUCUCUGGAUUCCUCGUCACUCAGCAGGGCAUCUCUGAGAGAAAUACC, the self-cleavage came to 0.93.

As to UACGUAGGUGGUUUACCCCUGAUAGUGCUAAGGGGGCCUGGGGGUUUGGACUGGGCAGAGCUCAACUCAGCGUGGCAAAGUGGCUGUGGCUAGACUGCCUCUCUGGAUACCUCGUCACUCAGCAGGGCAUCUCUGAGAGAAAUGCC, the self-cleavage stood at 0.25.

Consider UACGUAGGUGGUUUACCCCUGAUAGUGCUAAGGGGGCCUGGAAGUUUGGACUGGGCAGAGCUCAACACGGCGUGGCAAGGUGGCUGUGGCUAGACUGCCUCUCUGGAUUCCUCGUCACUCGACAGGGCAUCUCUGAGAGAAGUGCC, for which the self-cleavage is 0.26.

For UACGUAGGUGGUUUACCCCUGAUAGUGCUAAGGGGGCCUGGAGGUUUGGACUGGGCAGUGCUCAACACAGCGUGGCAAAGUGGCUGUGGCUAGACUGCCUCUCUGGAUUCCUCGUCACUCAGCAGGUCAUCUCUGAGAGAAAUGCC, the self-cleavage was 0.34.

With UACGUAGGUGGUUUACCCCUGAUAGUGCUAAGGGGGCCUGGAAGUUUGGACUGGGCAGAGCUCAACACUGCGUGGCAAAGUGGCUGUGGCUAGACUGCCUCUCUGGAUUCCUCGUCACUCAGCAGGCCAUCCCUGAGAGAAAUGCC, the self-cleavage is 0.24.

As for UACGUAGGUGGUUUACCCCUGAUAGUGCUAAGGGGGCCUGGAGGUUUGGACUGGGCAUAGCUCAACACAGCGUGGCAAAGUGGCUGUGGCUAGACUGCCUCUCUGGAUUCCUCGUCACUCAGCAGGGCAUCUCUGAGAGAAAUGCC, the self-cleavage was 0.04.

Turning to UACGUAGGUGGUUUACCCCUGAUAGUGCUAAGGGGGCCUGGAAGUUUGGACUGGGCAGGGCUCAACACAGCGUGGCAAAGUGGCUGUGGCUAGAUUGCCUCUCUGGAUACCUCGUCACUCAGCAGGGCAUCUCUGAGAGAAAUGCC, the self-cleavage came to 0.09.

In the case of UACGUAGGUGGUUUACCCCUGAUAGUGCUAAGGGGGCCUGGAAGUUUGGACUGGGCCGAGCUCAACACAGCGUGGCAAAGUGGCUGUGGCUAGACUGCCUCACUGGAUUCCUCGUCACUCAGCAGGGCAUCUCUGAGAGAAAUGCC, the self-cleavage is 0.13.

For UACGUAGGUGGUUUACCCCUGAUAGUGCUAAGGGGGCCUGGAAGUUUGGACUGGGCAGAGCUCAACGCAGCGUGGCAAAGUGGCUGUGGCUAGACUGCCCCUCUGGAUUCCUCGUCACUCAGCAGGGCAUCUCUGAGAGAAAUGCC, the self-cleavage stood at 0.

On to UACGUAGGUGGUUUACCCCUGAUAGUGCUAAGGGGGCCUGGAGGUUUGGACUGGGCAGAGCUCAACACAGCGUGGCAAAGUGGCUGUGGCUAGGCUGCCUCUCUGGAUUCCUCGUCACUCCUCAGGGCAUCUCUGAGAGAAAUGCC, for which the self-cleavage amounted to 0.

For UACGUAGGUGGUUUACCCCUGAUAGUGCUAAGGGGGCCUGGAAGUUUGGACUGGGCAGGGCUCAACACAGCGUGGCAAAGUGGCUGUGGCUAGACUGCCUCUCUGGAUUCCUCGUCACUCAGCAGGGCAUCUCUGAGAGAGAUGCC, the self-cleavage came to 0.14.

As for UACGUAGGUGGUUUACCCCUGAUAGUGCUAAGGGGGCCUGGAAGUUUGGACUGGGCAGAGCUCAACACUGCGUGGCAAAGUGGCUGUGGCUAGACUGCCUCUCUGGAUUCCUCGUCACUCAGCAGGGCAUCUCUGAGAGGAAUGCC, the self-cleavage was 0.06.

Take UACGUAGGUGGUUUACCCCUGAUAGUGCUAAGGGGGCCUGGAAGUUUGGACUGGGCAGAGCUCUACACAGCGUGGCAAAGUGGCUGUGGCUAGACUGCCUCUCUGGAUUCCUCGUCACUCAGCAGGGCACCUCUGAGAGAAAUGCC: the self-cleavage is 0.57.
